# Hit rate of the full screen: of about 110,000 compounds, about 230 (0.21%) showed an effect of 50% or more. The list shows a part of the results.
# Biological target: DPAP1 (Plasmodium falciparum, UniProt Q8IIJ9)
# Assay: primary screen, percent inhibition; read by cleavage of a fluorogenic dipeptide substrate; higher = more effect of the substance
# Parameters: species or system P. falciparum D10 trophozoite lysates; single well
# 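Also: 30 min substrate incubation versus DMSO and 10 µM JCP410 controls.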
# Chain of DPAP1 (Q8IIJ9 whole entry, looked up): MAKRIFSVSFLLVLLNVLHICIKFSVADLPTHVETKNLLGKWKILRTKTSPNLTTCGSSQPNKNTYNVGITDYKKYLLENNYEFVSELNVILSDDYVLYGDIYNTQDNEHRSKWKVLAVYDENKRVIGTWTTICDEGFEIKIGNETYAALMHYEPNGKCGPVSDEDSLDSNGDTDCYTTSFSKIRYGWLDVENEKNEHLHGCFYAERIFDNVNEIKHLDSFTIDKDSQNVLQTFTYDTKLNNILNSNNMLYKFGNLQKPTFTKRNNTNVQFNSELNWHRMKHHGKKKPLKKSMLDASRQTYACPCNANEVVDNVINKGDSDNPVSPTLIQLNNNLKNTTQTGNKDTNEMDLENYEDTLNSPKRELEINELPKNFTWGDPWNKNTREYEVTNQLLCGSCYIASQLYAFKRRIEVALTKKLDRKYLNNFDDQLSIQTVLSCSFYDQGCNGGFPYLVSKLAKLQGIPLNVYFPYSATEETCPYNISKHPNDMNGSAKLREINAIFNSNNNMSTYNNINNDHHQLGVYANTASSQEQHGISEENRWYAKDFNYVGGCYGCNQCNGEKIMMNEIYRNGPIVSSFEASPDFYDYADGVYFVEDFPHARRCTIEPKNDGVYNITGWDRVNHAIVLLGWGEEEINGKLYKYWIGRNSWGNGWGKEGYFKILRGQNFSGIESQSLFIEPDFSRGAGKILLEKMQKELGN
row,SMILES,% Inhibition @ 10 uM
1,C=CCN(CC=C)C(=O)Nc1cccc(Cl)c1,-5.41%
2,N#C/C(=C\c1ccccc1[N+](=O)[O-])c1nc(-c2ccccc2)cs1,-5.65%
3,COc1cccc(-c2cc(C(=O)O)c3ccccc3n2)c1,-0.865%
4,CCOC(=O)N1CCC2(CC1)OC(=O)C(C)=C2C(=O)NCCN1CCOCC1,-5.25%
5,N#Cc1cccc(NC(=O)COc2ccc3ccccc3c2Br)c1,2.67%
6,CS(=O)(=O)c1ccc2nc(NC(=O)c3ccc4c(c3)OCO4)sc2c1,2.38%
7,N#Cc1c(NC(=O)C2C3C=CC(C3)C2C(=O)O)sc2c1CCCCC2 (stereo not drawn),-6.35%
8,Cc1nc(S(=O)(=O)NCCc2ccccc2)c(C#N)c(C)c1Cl,4.19%
9,O=S(=O)(CCOc1ccccc1)N1CCOCC1,-6.83%
10,CC(C)(C)NCCCOc1ccc(Br)cc1,-3.74%
11,c1nc(N2CCNCC2)c2sc3nc(N4CCOCC4)c4c(c3c2n1)CCCC4,1.31%
12,c1ccc(CN2CCN(Cc3ccc(-c4ccccc4)cc3)CC2)cc1,3%
13,CCOc1cc(CN2CCN(c3ccccc3OC)CC2)ccc1OC,3.16%
14,COc1ccccc1CNCc1c(C(=O)O)[nH]c2ccccc12,-1.44%
15,COc1ccc(C(=O)OCCN2CCOCC2)cc1OC,0.84%
16,O=C(O)c1ccc2oc(=O)c(S(=O)(=O)c3ccc(F)cc3)cc2c1,0.44%
17,Cc1ccc(-c2cc(C(F)F)n3ncc(C(=O)NCCCN4CCCC4=O)c3n2)cc1,4.08%
18,CC(NC(=O)c1ccccc1Cl)c1cc2c(cc1Cl)OCCO2 (stereo not drawn),-6.94%
19,CC1CCN(C2=CC(=O)OC23CCCCC3)CC1,0.0539%
20,CCn1cnc2c(=O)oc3ccc(S(=O)(=O)NCc4ccc5c(c4)OCO5)cc3c21,1.49%
21,Cc1c(C(=O)OC(C)C)sc2ncn(CC(=O)O)c(=O)c12,0.561%
22,O=[N+]([O-])c1ccc(CN2CCN(c3ccccc3Cl)CC2)s1,-6.47%
23,Cc1ccc(-c2nnc(N3CCN(C(=O)c4ccco4)CC3)c3ccccc23)cc1,4.85%
24,O=C(O)/C=C/c1cccc(NS(=O)(=O)/C=C/c2ccccc2)c1,-0.712%
25,CCC(C(=O)NC1CCCC(C)C1C)n1nc(C)n2c(cc3sccc32)c1=O (stereo not drawn),-1.58%

row,SMILES,% Inhibition @ 10 uM
1,Cc1ccc(SCCC(=O)NC2CCCCCC2)cc1,-2.74%
2,Cc1cccc(NC(=O)c2ccccc2NC(=O)C2CC=CCC2C(=O)O)c1 (stereo not drawn),2.48%
3,c1cncc(-c2nc3cc(Oc4ccc5[nH]c(-c6cccnc6)nc5c4)ccc3[nH]2)c1,-0.828%
4,CCN(CC)CCCNCc1c(Cl)cccc1Cl,5.23%
5,O=C(Nc1ccc(C(F)(F)F)cc1)C1CCN(S(=O)(=O)c2ccc(F)cc2)CC1,6.43%
6,O=C(O)c1cc(N2C(=O)c3cccc4cc(Br)cc(c34)C2=O)ccc1O,13.5%
7,O=C(/C=C/c1ccco1)c1ccc(Cl)cc1,10.4%
8,Cc1c(NC(=O)c2ccco2)c(=O)n(-c2ccccc2)n1C,5.03%
9,Cn1nc(C(=O)N2CCCN(Cc3ccccc3F)C2)c2c1-c1ccccc1SC2,-5.37%
10,CCC(C)N1C(=O)S/C(=C/c2cc(Br)cc(OC)c2O)C1=O (stereo not drawn),3.5%
11,OC1CCCN(Cc2ccc3c(c2)OCO3)C1 (stereo not drawn),-0.969%
12,Fc1nc(N2CCOCC2)c(F)c(Oc2ccc(Br)cc2)c1F,1.84%
13,Cc1cccc(C)c1NC(=O)c1cc2c(=O)n3cccc(C)c3nc2n1C,0.331%
14,CC(C)C[C@H](NC(=O)OCc1ccccc1-c1ccccc1)C(=O)NCC#N,-4.72%
15,CCOc1cc(C(=O)NCc2nnc(S)n2-c2cccc(C)c2)cc(OCC)c1OCC,1.39%
16,COc1ccccc1/C=C/CNc1ccc(F)cc1,18%
17,COc1ccc(C2CC(=O)N3CN(Cc4cccnc4)CSC3=C2C#N)cc1 (stereo not drawn),46.3%
18,CCC(C)NC(=O)CN(c1ccc(OC)c(Cl)c1)S(=O)(=O)c1ccc(C)cc1 (stereo not drawn),1.05%
19,Cc1ccccc1-n1nc2c(c1NC(=O)COc1ccc(Cl)cc1)CS(=O)(=O)C2,-3.83%
20,COC(=O)C1=CN(Cc2ccc(Cl)cc2)C=C(C(=O)OC)C1c1cc(OC)c(OC)cc1OC,0.219%
21,O=C1CC(c2ccc(F)cc2)c2c(n3c4ccccc4nc3n(Cc3ccc(F)cc3)c2=O)N1 (stereo not drawn),-5.72%
22,C(=C/c1nccc2c1[nH]c1ccccc12)/c1ccc2c(c1)OCO2,-11.5%
23,CCN(CC)C(=O)c1c(C)nn(-c2ccccc2)c1-n1cccc1,0.137%
24,COc1ccccc1C(=O)Nc1cccc(N)c1,1.34%
25,CCCC(=O)Nc1ccc(S(=O)(=O)N2CCCCC2)cc1,-0.366%

row,SMILES,% Inhibition @ 10 uM
1,O=C(Nc1cccc(Cl)c1)c1c(O)nc2ccccc2c1O,-4.75%
2,CCOc1ccccc1NC(=O)C1=C(C)NC(=O)NC1c1ccc(Cl)cc1 (stereo not drawn),-2.22%
3,Nc1c(C(=O)Nc2ccc(C(=O)O)cc2)sc2nc3c(cc12)CCCCCC3,4.83%
4,N#CC1=C(N)OC2=C(C(=O)c3ccccc3C2=O)C1c1ccc(F)c(F)c1 (stereo not drawn),-2.21%
5,Cc1ccc(F)cc1NC(=O)Cn1nc(C(F)(F)F)cc1C1CC1,-3.71%
6,Cn1cc(C(=O)Nc2cccc(S(=O)(=O)N3CCOCC3)c2)cn1,0.35%
7,COc1ccc(-c2noc(-c3ccc(F)cc3)n2)cc1,-5.62%
8,CC(=O)N1CCC(NCCc2cccc(F)c2)CC1,1.74%
9,COCc1cc(C)nc(Sc2nc3c(c(=O)n(C)c(=O)n3C)n2C)c1C#N,18.3%
10,CC1CN(C2CCC(C(C)(C)C)CC2)CC(C)O1 (stereo not drawn),-5.44%
11,COc1cccc(/C=C2\CCC(C3CCCC3)C2=O)c1OC (stereo not drawn),6.2%
12,COC(=O)C1=C(C)N=C2SCC(=O)N2C1c1ccccc1 (stereo not drawn),4.65%
13,CN1CCN(C(=O)CCCc2nnc3n(C)c(=O)c4sccc4n23)CC1,-1.71%
14,CCN(CC)CCn1c2ccccc2n2cc(-c3ccc(F)cc3)nc12,2.14%
15,CCOC(=O)c1c(S(=O)(=O)NCc2ccccc2C)c(C)n(C)c1C,-3.57%
16,CCN(CCCNC(=O)Cn1ncc2c3ccccc3nc-2c1O)Cc1ccccc1,-1.21%
17,COc1ccc(-c2cc(C(=O)N3CC4(C)CC3CC(C)(C)C4)no2)cc1 (stereo not drawn),-3.36%
18,CCn1c(/C(C#N)=C/c2ccccc2Cl)nc2ccccc21,3.86%
19,Cc1ccc2nc(NC(=O)CN(C)S(=O)(=O)c3ccc4[nH]c(-c5ccccc5)nc4c3)sc2c1,0.0525%
20,N#C/C(=C\c1ccc(O)cc1)C(=O)NCC1CCCO1 (stereo not drawn),1.67%
21,Cc1cc2c(c(=O)o1)C1(C(=O)Nc3ccc(Br)cc31)C(C#N)=C(N)O2 (stereo not drawn),-5.36%
22,COc1ccc(C2=NN(CC(=O)NCCCN3CCC(Cc4ccccc4)CC3)C(=O)CC2)cc1,-0.0542%
23,CCOC(=O)C1=C(C)N=c2s/c(=C\c3ccco3)c(=O)n2C1/C=C/c1ccccc1 (stereo not drawn),3.44%
24,Cc1nc2ccc(S(=O)(=O)N(CC(=O)NCCC3=CCCCC3)Cc3ccccc3)cc2s1,1.63%
25,O=C(CC(=O)c1ccc([N+](=O)[O-])cc1)Nc1cc(C(F)(F)F)ccc1Cl,3.28%

row,SMILES,% Inhibition @ 10 uM
1,CCOc1ccc2ncc(S(=O)(=O)c3ccccc3)c(N3CCOCC3)c2c1,-4.68%
2,Cc1cc(C)c2c(-n3cccc3)c(C(=O)NCCc3ccc(S(N)(=O)=O)cc3)sc2n1,9.77%
3,Cc1ccccc1CN(c1ccc(C(=O)NCc2cccnc2)cc1)S(C)(=O)=O,5.54%
4,COc1ccc(C2C(C(=O)N(C)C3CCCCC3)c3cc(OC)c(OC)cc3C(=O)N2C)cc1 (stereo not drawn),0.457%
5,CCCCN(C)CCNC(=O)c1ccc(CS(=O)(=O)Cc2ccc(Cl)cc2)o1,2.05%
6,CCOC(=O)N1CCN(C(=O)c2cc(-n3cnnc3)ccc2Cl)CC1,2.99%
7,c1ccn2c(c1)nc1nc3nonc3nc12,-3.06%
8,OC1(CCC#CCN2CCCCC2)c2ccccc2-c2ccccc21,2.86%
9,Cn1cnc2c1c(=O)n(Cc1ccc(Cl)cc1F)c(=O)n2C,-3.45%
10,CC1CCN(C(=O)CCc2nc(CN3CCN(C(=O)c4noc5c4CCCC5)CC3)no2)CC1,-7.02%
11,COC(=O)C(=C/C(C)=C/c1ccco1)C(=O)OC,-5.62%
12,COc1ccc(NC(=O)CCCC(=O)Nc2ccc(OC)cc2)cc1,-0.68%
13,O=C(Nc1c(-c2ccccc2)nc2ccccn12)C1CCCCC1,0.813%
14,CCCC1CCc2c(sc(NC(=O)c3cccnc3)c2C(N)=O)C1 (stereo not drawn),-1.42%
15,CC(C)(C)/C(O)=C/c1nc2ccccc2nc1/C=C(\O)C(C)(C)C,-1.84%
16,CCSc1nc2sc3c(c2c(=O)n1CC)CCCC3,1.57%
17,COc1ccc(C2C(C#N)=C(N)Oc3[nH]nc(C)c32)c(OCc2ccccc2Cl)c1 (stereo not drawn),0.121%
18,Cc1ccc(C)c(S(=O)(=O)NC(C)C(=O)Nc2ccc(F)cc2)c1 (stereo not drawn),-11.7%
19,O=S(=O)(NCC1CCCO1)c1ccc(Oc2ccccc2)cc1 (stereo not drawn),0.161%
20,CCc1ccc(CNC(=O)c2cc3c(C)nc4ccccc4c3o2)cc1,-3.45%
21,CC(C)C[C@H](NC(=O)c1ccc(OC(F)(F)C(F)F)cc1)C(=O)NCC#N,0.174%
22,CCOC(=O)c1c(NC(=O)CN(C)C)sc2c1CCC2,1.72%
23,CCC(=O)Nc1ccc(S(=O)(=O)Nc2nc(C)cc(C)n2)cc1,-6.51%
24,CCOC(=O)c1cc(-c2ccccc2)n(CC(=O)NC2CCCCCC2)c1C,15.2%

# Source: PMC6919601, “Identification of Plasmodium dipeptidyl aminopeptidase allosteric inhibitors by high throughput screening” (PLoS ONE, 2019)
